We go through 5 molecules from patent publication US20240336682A1 (SHENGHE CHINA BIOPHARMACEUTICAL, published 2024).

In one experiment the target is T1, TGFβ1 (UniProt P01137 fragment, limits assumed).
T1 construct: also called TGFβ1 protein
Briefly: ELISA, TGFb1 coated at 1 ug/mL, HRP goat anti-human IgG-Fc. Here is the method:
TGFβ1 was diluted to 1 μg/mL with PBS buffer at pH 7.4, added into the 96-well ELISA plate at 100 μL per well, coated overnight at 4° C., and blocked with 1% BSA blocking solution for 1 hour. The plate was washed 3 times with PBST, and the constructed expressing antibodies were diluted to 20 µg/mL with 0.5% BSA sample diluent as the starting concentration, and then diluted by 3-fold gradient (11 gradients in total). A negative control (blank well and IgG1 isotype control) and a positive control were set, and the positive control was TGF-βR2 (Acro, Cat: TG2-H5252), and incubated at 37° C. for 1 h at 100 μL per well. The plate was washed 3 times with PBST, and then HRP-labelled goat anti-human IgG-Fc was diluted with the sample diluent at 1:10000. 100 μL was added into each well, and incubated at room temperature for 1 hour. The plate was washed 4 times with PBST, and 100 μL of TMB substrate was added into each well, and incubated at room temperature without light for 10 minutes. 100 μL of 1 M HCl solution was added into each well to terminate the color development reaction. The absorbance value of each well in the 96-well plate was determined by selecting the wavelength of 450 nm and the reference wavelength of 570 nm on a multifunctional enzyme marker, and the absorbance value (OD)=OD₄₅₀ₙₘ−OD₅₇₀ₙₘ. The logarithm of the concentration of the constructed antibodies were taken as the abscissa, and the measured absorbance value of each well was taken as the ordinate, and the Sigmoidaldose-response (Variable Slope) method (GraphPad Prism software, GraphPad Software, San Diego, California) was selected for nonlinear regression to obtain the binding curve of the target antibodies to the TGFβ1 protein.

Another experiment deals with T2, Human-NKP30-His (human, UniProt O14931 19-135).
T2 construct: also called NKP30 protein; not shown: His tag
T2 sequence (looked up): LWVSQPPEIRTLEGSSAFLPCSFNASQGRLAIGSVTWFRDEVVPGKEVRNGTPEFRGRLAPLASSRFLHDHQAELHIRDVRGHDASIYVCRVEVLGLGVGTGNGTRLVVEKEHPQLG
The experiment in a line: ELISA, Human-NKP30-His coated at 0.5 ug/mL, HRP goat anti-human IgG-Fc. The procedure:
Human-NKP30-His was diluted to 0.5 μg/mL with PBS buffer at pH 7.4, added into the 96-well ELISA plate at 100 μL per well, coated overnight at 4° C., and blocked with 1% BSA blocking solution for 1 hour. The plate was washed 3 times with PBST, and the constructed antibodies were diluted to 10 μg/mL with 0.5% BSA sample diluent as the starting concentration, and then diluted by 3-fold gradient (11 gradients in total). A negative control (blank well and IgG1 isotype control) and a positive control were set, and the positive control was a NKP30 humanized antibody (sequence shown in SEQ ID No.32), and incubated at 37° C. for 1 h at 100 μL per well. The plate was washed 3 times with PBST, and then HRP-labelled goat anti-human IgG-Fc was diluted with the sample diluent at 1:20000. 100 μL was added into each well, and incubated at room temperature for 1 hour. The plate was washed 4 times with PBST, and 100 μL of TMB substrate was added into each well, and incubated at room temperature without light for 10 minutes. 100 μL of 1 M HCl solution was added into each well to terminate the color development reaction. The absorbance value of each well in the 96-well plate was determined by selecting the wavelength of 450 nm and the reference wavelength of 570 nm on a multifunctional enzyme marker, and the absorbance value (OD)=OD₄₅₀ₙₘ−OD₅₇₀ₙₘ. The logarithm of the concentration of the constructed antibodies were taken as the abscissa, and the measured absorbance value of each well was taken as the ordinate, and the Sigmoidaldose-response (Variable Slope) method (GraphPad Prism software, GraphPad Software, San Diego, California) was selected for nonlinear regression to obtain the binding curve of the target antibody to NKP30 protein.
(An ELISA detects its analyte on a solid surface through an enzyme-linked reagent.)

For another experiment, the target named is T3, Human-CD24-His (human, UniProt P25063 27-59).
T3 construct: also called CD24 protein; not shown: His tag
T3 chain (looked up): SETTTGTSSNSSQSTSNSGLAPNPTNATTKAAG
The experiment in a line: ELISA, Human-CD24-His coated at 1 ug/mL, HRP goat anti-human IgG-Fc. The procedure:
Human-CD24-His was diluted to 1 μg/mL with PBS buffer at pH 7.4, added into the 96-well ELISA plate at 100 μL per well, coated overnight at 4° C., and blocked with 1% BSA blocking solution for 1 hour. The plate was washed 3 times with PBST, and the constructed antibodies were diluted to 20 μg/mL with 0.5% BSA sample diluent as the starting concentration, and then diluted by 3-fold gradient (11 gradients in total) and incubated at 37° C. for 1 h at 100 μL per well. The plate was washed 3 times with PBST, and then HRP-labelled goat anti-human IgG-Fc (jackson Cat: 109-035-098) was diluted with the sample diluent at 1:10000. 100 μL was added into each well, and incubated at room temperature for 1 hour. A negative control (blank well and IgG1 isotype control) and a positive control were set, and the positive control was a CD24 monoclonal antibody (CD24 sequence consists of SEQ ID No. 12 and SEQ ID No. 34). The plate was washed 4 times with PBST, and 100 μL of TMB substrate was added into each well, and incubated at room temperature without light for 10 minutes. 100 μL of 1 M HCl solution was added into each well to terminate the color development reaction. The absorbance value of each well in the 96-well plate was determined by selecting the wavelength of 450 nm and the reference wavelength of 570 nm on a multifunctional enzyme marker, and the absorbance value (OD)=OD₄₅₀ₙₘ−OD₅₇₀ₙₘ. The logarithm of the concentration of the constructed antibodies were taken as the abscissa, and the measured absorbance value of each well was taken as the ordinate, and the Sigmoidaldose-response (Variable Slope) method (GraphPad Prism software, GraphPad Software, San Diego, California) was selected for nonlinear regression to obtain the binding curve of the target antibodies to the CD24 protein.

Chain of TGFβ1 (P01137 279-390 limits assumed): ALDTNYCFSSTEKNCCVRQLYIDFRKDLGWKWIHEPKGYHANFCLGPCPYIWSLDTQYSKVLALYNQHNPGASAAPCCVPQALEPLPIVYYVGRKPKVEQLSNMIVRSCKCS

B1: CNT-B (other)
light: DIVMTQSPSSLTATARERVTMSCKSSQSLLNSGNQKNYLTWYQQKPGQPPKLLIYWASTRESGVPDRFTGSGSGTDFTLTVSSVQAEDLAVYYCQNAYFYPFTFGSGTKLEIKRTVAAPSVFIFPPSDEQLKSGTASVVCLLNNFYPREAKVQWKVDNALQSGNSQESVTEQDSKDSTYSLSSTLTLSKADYEKHKVYACEVTHQGLSSPVTKSFNRGEC
heavy: EVQLVESGGGLVQPGGSLRLSCAASGITFSRSVMGWFRQAPGKLRELVAGITSDDNTDYADSVKGRFTISRDNSKNTLYLQMNSLRAEDTAVYYCNILPDSRLGWGQGTLVTVSSGGGGSGGGGSGGGGSEVQLVESGGGLVKPGGSLKLSCTASGFTFSSYVMSWVRQTPEKRLEWVATINDGGSYTYYPDNLKGRFTISRDNAKNNLYLQMSHLRSEDTARYYCSVLRRGNAMDYWGQGTSVTVSS[human IgG1 constant region not spelt out]GGSGGGGSGGGGSGGGGSGIPPHVQKSVNNDMIVTDNNGAVKFPQLCKFCDVRFSTCDNQKSCMSNCSITSICEKPQEVCVAVWRKNDENITLETVCHDPKLPYHDFILEDAASPKCIMKEKKKPGETFFMCSCSSDECNDNIIFSEEYNTSNPD
notes: also called constructed antibody CNT-B; trifunctional antibody
In general, EC50 (read off the curve) refers to the concentration that produces a half-maximal response. A low value points to higher potency in that assay. As to B1, the half-maximal effective concentration (EC50 (read off the curve)) in the experiment with TGFβ1 is around 0.3 µg/mL; with Human-NKP30-His it was around 0.1 µg/mL.

B2: DNT-B (other)
light: DIQMTQSPSTLSASVGDRVTITCSASSSVSSMHWYQQKPGKAPKLLIYSTSNLASGVPSRFSGSGSGTEYTLTISSLQPDDFATYYCHHWTSYMYTFGGGTKVEIKRTVAAPSVFIFPPSDEQLKSGTASVVCLLNNFYPREAKVQWKVDNALQSGNSQESVTEQDSKDSTYSLSSTLTLSKADYEKHKVYACEVTHQGLSSPVTKSFNRGEC
heavy: EVQLVESGGGLVQPGGSLRLSCAASGITFSRSVMGWFRQAPGKLRELVAGITSDDNTDYADSVKGRFTISRDNSKNTLYLQMNSLRAEDTAVYYCNILPDSRLGWGQGTLVTVSSGGGGSGGGGSGGGGSQVQLVQSGSELKKPGASVKVSCKASGYIFTDYAIHWVRQAPGQGLEWMGFINTATGEPTYADDFKGRFVFSLDTSVSTAYLQISSLKAEDTAVYFCTSGVHWGQGTLVTVSS[human IgG1 constant region not spelt out]GGSGGGGSGGGGSGGGGSGIPPHVQKSVNNDMIVTDNNGAVKFPQLCKFCDVRFSTCDNQKSCMSNCSITSICEKPQEVCVAVWRKNDENITLETVCHDPKLPYHDFILEDAASPKCIMKEKKKPGETFFMCSCSSDECNDNIIFSEEYNTSNPD
notes: also called constructed antibody DNT-B; trifunctional antibody
For the molecule B2, the concentration giving a half-maximal response (EC50 (read off the curve)) with Human-CD24-His is around 0.2 µg/mL; in the experiment with TGFβ1, around 0.02 µg/mL.

B3: DNT-C (other)
light: DIQMTQSPSTLSASVGDRVTITCSASSSVSSMHWYQQKPGKAPKLLIYSTSNLASGVPSRFSGSGSGTEYTLTISSLQPDDFATYYCHHWTSYMYTFGGGTKVEIKRTVAAPSVFIFPPSDEQLKSGTASVVCLLNNFYPREAKVQWKVDNALQSGNSQESVTEQDSKDSTYSLSSTLTLSKADYEKHKVYACEVTHQGLSSPVTKSFNRGECGGGGSGGGGSGGGGSGGGGSEVQLVESGGGLVQPGGSLRLSCAASGITFSRSVMGWFRQAPGKLRELVAGITSDDNTDYADSVKGRFTISRDNSKNTLYLQMNSLRAEDTAVYYCNILPDSRLGWGQGTLVTVSS
heavy: QVQLVQSGSELKKPGASVKVSCKASGYIFTDYAIHWVRQAPGQGLEWMGFINTATGEPTYADDFKGRFVFSLDTSVSTAYLQISSLKAEDTAVYFCTSGVHWGQGTLVTVSS[human IgG1 constant region not spelt out]GGSGGGGSGGGGSGGGGSGIPPHVQKSVNNDMIVTDNNGAVKFPQLCKFCDVRFSTCDNQKSCMSNCSITSICEKPQEVCVAVWRKNDENITLETVCHDPKLPYHDFILEDAASPKCIMKEKKKPGETFFMCSCSSDECNDNIIFSEEYNTSNPD
notes: also called constructed antibody DNT-C; trifunctional antibody
Take B3: the half-maximal effective concentration (EC50 (read off the curve)) with Human-CD24-His was around 0.03 µg/mL.

B4: CNT-A (other)
light: EVQLVESGGGLVQPGGSLRLSCAASGITFSRSVMGWFRQAPGKLRELVAGITSDDNTDYADSVKGRFTISRDNSKNTLYLQMNSLRAEDTAVYYCNILPDSRLGWGQGTLVTVSSGGGGSGGGGSGGGGSDIVMTQSPSSLTATARERVTMSCKSSQSLLNSGNQKNYLTWYQQKPGQPPKLLIYWASTRESGVPDRFTGSGSGTDFTLTVSSVQAEDLAVYYCQNAYFYPFTFGSGTKLEIKRTVAAPSVFIFPPSDEQLKSGTASVVCLLNNFYPREAKVQWKVDNALQSGNSQESVTEQDSKDSTYSLSSTLTLSKADYEKHKVYACEVTHQGLSSPVTKSFNRGEC
heavy: EVQLVESGGGLVKPGGSLKLSCTASGFTFSSYVMSWVRQTPEKRLEWVATINDGGSYTYYPDNLKGRFTISRDNAKNNLYLQMSHLRSEDTARYYCSVLRRGNAMDYWGQGTSVTVSS[human IgG1 constant region not spelt out]GGSGGGGSGGGGSGGGGSGIPPHVQKSVNNDMIVTDNNGAVKFPQLCKFCDVRFSTCDNQKSCMSNCSITSICEKPQEVCVAVWRKNDENITLETVCHDPKLPYHDFILEDAASPKCIMKEKKKPGETFFMCSCSSDECNDNIIFSEEYNTSNPD
notes: also called constructed antibody CNT-A; trifunctional antibody
For B4, the “EC50 (read off the curve)” value with TGFβ1 was around 0.03 µg/mL; with Human-NKP30-His, around 0.02 µg/mL.

B5: CNT-C (other)
light: DIVMTQSPSSLTATARERVTMSCKSSQSLLNSGNQKNYLTWYQQKPGQPPKLLIYWASTRESGVPDRFTGSGSGTDFTLTVSSVQAEDLAVYYCQNAYFYPFTFGSGTKLEIKRTVAAPSVFIFPPSDEQLKSGTASVVCLLNNFYPREAKVQWKVDNALQSGNSQESVTEQDSKDSTYSLSSTLTLSKADYEKHKVYACEVTHQGLSSPVTKSFNRGECGGGGSGGGGSGGGGSGGGGSEVQLVESGGGLVQPGGSLRLSCAASGITFSRSVMGWFRQAPGKLRELVAGITSDDNTDYADSVKGRFTISRDNSKNTLYLQMNSLRAEDTAVYYCNILPDSRLGWGQGTLVTVSS
heavy: EVQLVESGGGLVKPGGSLKLSCTASGFTFSSYVMSWVRQTPEKRLEWVATINDGGSYTYYPDNLKGRFTISRDNAKNNLYLQMSHLRSEDTARYYCSVLRRGNAMDYWGQGTSVTVSS[human IgG1 constant region not spelt out]GGSGGGGSGGGGSGGGGSGIPPHVQKSVNNDMIVTDNNGAVKFPQLCKFCDVRFSTCDNQKSCMSNCSITSICEKPQEVCVAVWRKNDENITLETVCHDPKLPYHDFILEDAASPKCIMKEKKKPGETFFMCSCSSDECNDNIIFSEEYNTSNPD
notes: also called constructed antibody CNT-C; trifunctional antibody
Take B5: in the experiment with TGFβ1, the 50% effective concentration (EC50 (read off the curve)) is around 0.5 µg/mL. Also, in the experiment with Human-NKP30-His, the binding result is on record as “binds”.
